The values below come from US7592316B2, “Peptides as NS3-serine protease inhibitors of hepatitis C virus” (Schering Corporation, priority 2000, dated 2009).

The assay concerns the target HCV NS3/NS4A protease (strain 1a) (Hepatitis C virus genotype 1a, UniProt P27958). Kind of assay: biochemical. To be noted: Table 6; HCV NS3/NS4A protease, 30° C., pH 6.5; read-out: Ki*.
What is called Ki is the dissociation constant of the complex between target and ligand, obtained from inhibition or displacement. In the case of `C=CCCC(NC(=O)[C@@H]1[C@@H]2[C@H](CN1C(=O)[C@@H](NC(=O)NC(C)(C)C)C(C)(C)C)C2(C)C)C(=O)C(=O)NCCC(=O)NCc1ccccc1` (stereo partly drawn), the inhibition constant (Ki) lay in the range of 1 to 100 nM.

For `C=CCCNC(=O)C(=O)C(CCCC)NC(=O)[C@@H]1[C@@H]2[C@H](CN1C(=O)[C@@H](NC(=O)NC(C)(C)C)C(C)(C)C)C2(C)C` (stereo partly drawn), the Ki was in the range of 101 to 1000 nM. `CCCC(NC(=O)[C@@H]1[C@@H]2[C@H](CN1C(=O)[C@@H](NC(=O)OC1CCC[C@@H]1C)C1CCCCC1)C2(Cl)Cl)C(=O)C(N)=O` (stereo partly drawn): the inhibitory constant (Ki) was 1 to 100 nM. To `C=CCCC(NC(=O)[C@@H]1[C@@H]2[C@H](CN1C(=O)[C@@H](NC(=O)OC(C)(C)C)C1CCCCC1)C2(C)C)C(=O)C(=O)NCCS(=O)(=O)N(C)C(C)(C)C` (stereo partly drawn) belongs 1 to 100 nM; to `C=CCCC(NC(=O)[C@@H]1[C@@H]2[C@H](CN1C(=O)[C@@H](NC(=O)OC(C)(C)C)C1CCCCC1)C2(C)C)C(=O)C(=O)NCCS(=O)(=O)NC(C)(C)C` (stereo partly drawn), 101 to 1000 nM.

For `COC(=O)C(C)(C)NC(=O)N[C@H](C(=O)N1C[C@H]2[C@@H]([C@H]1C(=O)NC(CC1CCC1)C(=O)C(N)=O)C2(Cl)Cl)C1CCCCC1` (stereo partly drawn), the inhibition constant Ki lay within 1 to 100 nM.

Turning to `COC(=O)C(C)(C)NC(=O)N[C@H](C(=O)N1C[C@H]2[C@@H]([C@H]1C(=O)NC(CC1CCC1)C(=O)C(N)=O)C2(Cl)Cl)C(C)(C)C` (stereo partly drawn), the Ki was in the range of 1 to 100 nM. With `CC(C)(C)[C@H](NC(=O)OC(CF)CF)C(=O)N1C[C@H]2[C@@H]([C@H]1C(=O)NC(CC1CCC1)C(=O)C(N)=O)C2(C)C` (stereo partly drawn), the Ki lay within 101 to 1000 nM. Take `CC1(C)[C@@H]2[C@@H](C(=O)NC(CC3CC3)C(=O)C(N)=O)N(C(=O)[C@@H](NC(=O)OC(CF)CF)C3CCCCC3)C[C@@H]21` (stereo partly drawn): the inhibition constant Ki lay within 1 to 100 nM. As for `CC1(C)[C@@H]2[C@@H](C(=O)NC(CC3CC3)C(=O)C(N)=O)N(C(=O)[C@@H](NC(=O)OC(C)(C)C(F)(F)F)C3Cc4ccccc4C3)C[C@@H]21` (stereo partly drawn), the figure is 1 to 100 nM. `CC(NC(=O)N[C@H](C(=O)N1C[C@H]2[C@@H]([C@H]1C(=O)NC(CC1CCC1)C(=O)C(N)=O)C2(Cl)Cl)C(C)(C)C)C(C)(C)C` (stereo partly drawn): the Ki is 1 to 100 nM. As for `COC(=O)C1(NC(=O)N[C@H](C(=O)N2C[C@H]3[C@@H]([C@H]2C(=O)NC(CC2CCC2)C(=O)C(N)=O)C3(Cl)Cl)C2CCCCC2)CCCC1` (stereo partly drawn), the figure is 101 to 1000 nM; as for `CC1C[C@H]2CN(C(=O)[C@@H](NC(=O)OC(C)(C)C)C3CCCCC3)[C@H](C(=O)N[C@H](CC3CCC3)C(=O)C(=O)NCC(=O)N[C@H](C(=O)N(C)C)c3ccccc3)[C@H]2C1` (stereo partly drawn), 1 to 100 nM; as for `CC1C[C@H]2CN(C(=O)[C@@H](NC(=O)OC(C)(C)C)C3CCCCC3)[C@H](C(=O)N[C@H](CC3CCC3)C(=O)C(N)=O)[C@H]2C1` (stereo partly drawn), 101 to 1000 nM.

`COC(=O)C1(NC(=O)N[C@H](C(=O)N2C[C@H]3[C@@H]([C@H]2C(=O)NC(CC2CCC2)C(=O)C(N)=O)C3(Cl)Cl)C(C)(C)C)CCCC1` (stereo partly drawn): the inhibitory constant (Ki) lay within 101 to 1000 nM. On to `COC(=O)C1(NC(=O)N[C@H](C(=O)N2C[C@H]3[C@@H]([C@H]2C(=O)NC(CC2CC2)C(=O)C(N)=O)C3(Cl)Cl)C(C)(C)C)CCCC1` (stereo partly drawn), for which the inhibitory constant (Ki) lay in the range of 101 to 1000 nM. As for `CC(=O)OCC(NC(=O)N[C@H](C(=O)N1C[C@H]2[C@@H]([C@H]1C(=O)NC(CC1CCC1)C(=O)C(N)=O)C2(Cl)Cl)C(C)(C)C)C(C)(C)C` (stereo partly drawn), the figure is 1 to 100 nM. `CC(NC(=O)N[C@H](C(=O)N1C[C@H]2[C@@H]([C@H]1C(=O)NC(CC1CC1)C(=O)C(N)=O)C2(C)C)C(C)(C)C)C(F)(F)F` (stereo partly drawn): the Ki lay in the range of 101 to 1000 nM.

In the case of `CC(NC(=O)N[C@H](C(=O)N1C[C@H]2[C@@H]([C@H]1C(=O)NC(CC1CC1)C(=O)C(N)=O)C2(C)C)C1CCCCC1)C(F)(F)F` (stereo partly drawn), the Ki lay in the range of 101 to 1000 nM.

Regarding `CC(C)(C)NC(=O)N[C@H](C(=O)N1C[C@H]2[C@@H]([C@H]1C(=O)N[C@@H](CC1CCC1)C(=O)C(N)=O)C2(C)C)C(C)(C)C`, the Ki is 1 to 100 nM. As for `CC(C)(C)NC(=O)N[C@H](C(=O)N1C[C@H]2[C@@H]([C@H]1C(=O)N[C@H](CC1CCC1)C(=O)C(N)=O)C2(C)C)C(C)(C)C`, the figure is 101 to 1000 nM; as for `CC(C)(C)OC(=O)N[C@H](C(=O)N1C[C@H]2[C@@H]([C@H]1C(=O)NC(CCC(F)(F)F)C(=O)C(=O)O)C2(C)C)C1CCCCC1` (stereo partly drawn), 1 to 100 nM. To `Cc1ccc(S(=O)(=O)CNC(=O)C(=O)C(CC2CCC2)NC(=O)[C@@H]2[C@@H]3[C@H](CN2C(=O)[C@@H](NC(=O)NC(C)(C)C)C(C)(C)C)C3(C)C)cc1` (stereo partly drawn) belongs 101 to 1000 nM; to `Cc1ccc(S(=O)(=O)CNC(=O)C(=O)C(CC2CCC2)NC(=O)[C@@H]2[C@@H]3[C@H](CN2C(=O)[C@@H](NC(=O)OC(C)(C)C)C2CCCCC2)C3(C)C)cc1` (stereo partly drawn), 101 to 1000 nM. As for `CC(NC(=O)N[C@H](C(=O)N1C[C@H]2[C@@H]([C@H]1C(=O)NC(CC1CCC1)C(=O)C(N)=O)C2(C)C)C(C)(C)C)C(F)(F)F` (stereo partly drawn), the figure is 1 to 100 nM; as for `CC(=O)OCC(NC(=O)N[C@H](C(=O)N1C[C@H]2[C@@H]([C@H]1C(=O)NC(CC1CCC1)C(=O)C(N)=O)C2(Cl)Cl)C1CCCCC1)C(C)(C)C` (stereo partly drawn), 1 to 100 nM. For `CC(C)(C)[C@H](NC(=O)N[C@H](CO)C(C)(C)C)C(=O)N1C[C@H]2[C@@H]([C@H]1C(=O)NC(CC1CCC1)C(=O)C(N)=O)C2(Cl)Cl` (stereo partly drawn), the Ki was in the range of 101 to 1000 nM.

Take `C#CC1(NC(=O)N[C@H](C(=O)N2C[C@H]3[C@@H]([C@H]2C(=O)NC(CC2CC2)C(=O)C(N)=O)C3(C)C)C(C)(C)C)CCCCC1` (stereo partly drawn): the inhibition constant Ki fell in the range of 1 to 100 nM. For the compound `C#CC1(NC(=O)N[C@H](C(=O)N2C[C@H]3[C@@H]([C@H]2C(=O)NC(CC2CC2)C(=O)C(N)=O)C3(C)C)C2CCCCC2)CCCCC1` (stereo partly drawn), the inhibition constant Ki is 1 to 100 nM. As to `CC(C)(C)NC(=O)N[C@H](C(=O)N1C[C@H]2[C@@H]([C@H]1C(=O)NC(CC1CCC1)C(=O)C(N)=O)C21CCCC1)C(C)(C)C` (stereo partly drawn), the Ki lay in the range of 101 to 1000 nM.

As to `CCC(F)(F)CC(NC(=O)[C@@H]1[C@@H]2[C@H](CN1C(=O)[C@@H](NC(=O)OC(C)(C)C)C1CCCCC1)C2(C)C)C(=O)C(=O)O` (stereo partly drawn), the Ki is 101 to 1000 nM. As for `CCC(F)(F)CC(NC(=O)[C@@H]1[C@@H]2[C@H](CN1C(=O)[C@@H](NC(=O)NC(C)(C)C)C(C)(C)C)C2(C)C)C(=O)C(=O)O` (stereo partly drawn), the figure is 101 to 1000 nM; as for `CCC(F)(F)CC(NC(=O)[C@@H]1[C@@H]2[C@H](CN1C(=O)[C@@H](NC(=O)OC(C)(C)C)C1CCCCC1)C2(C)C)C(=O)C(N)=O` (stereo partly drawn), 101 to 1000 nM; as for `CCC(F)(F)CC(NC(=O)[C@@H]1[C@@H]2[C@H](CN1C(=O)[C@@H](NC(=O)NC(C)(C)C)C(C)(C)C)C2(C)C)C(=O)C(N)=O` (stereo partly drawn), 101 to 1000 nM.

For `COC(=O)[C@@H](NC(=O)N[C@H](C(=O)N1C[C@H]2[C@@H]([C@H]1C(=O)NC(CC1CCC1)C(=O)C(N)=O)C2(Cl)Cl)C(C)(C)C)C(C)(C)O` (stereo partly drawn), the Ki was 101 to 1000 nM. To `C#CC1(NC(=O)N[C@H](C(=O)N2C[C@H]3[C@@H]([C@H]2C(=O)NC(CC2CCC2)C(=O)C(N)=O)C3(C)C)C(C)(C)C)CCCCC1` (stereo partly drawn) belongs 1 to 100 nM; to `CC(C)(C)[C@@H](CO)NC(=O)N[C@H](C(=O)N1C[C@H]2[C@@H]([C@H]1C(=O)NC(CC1CCC1)C(=O)C(N)=O)C2(Cl)Cl)C1CCCCC1` (stereo partly drawn), 101 to 1000 nM; to `CC(C)(C)OC(=O)N[C@H](C(=O)N1C[C@H]2[C@@H]([C@H]1C(=O)N[C@H](CC1CCC1)C(=O)C(N)=O)C2(Cl)Cl)C(C)(C)C`, > 1000 nM.

Take `CC(C)(C)OC(=O)N[C@H](C(=O)N1C[C@H]2[C@@H]([C@H]1C(=O)N[C@@H](CC1CCC1)C(=O)C(N)=O)C2(Cl)Cl)C(C)(C)C`: the inhibitory constant (Ki) lay within 1 to 100 nM.

As to `CCC1(NC(=O)N[C@H](C(=O)N2C[C@H]3[C@@H]([C@H]2C(=O)NC(CC2CC2)C(=O)C(N)=O)C3(C)C)C2CCCCC2)CCCCC1` (stereo partly drawn), the inhibition constant (Ki) is 1 to 100 nM. Turning to `CCC1(NC(=O)N[C@H](C(=O)N2C[C@H]3[C@@H]([C@H]2C(=O)NC(CC2CC2)C(=O)C(N)=O)C3(C)C)C(C)(C)C)CCCCC1` (stereo partly drawn), the Ki fell in the range of 1 to 100 nM.

For `CC(C)(CF)NC(=O)N[C@H](C(=O)N1C[C@H]2[C@@H]([C@H]1C(=O)NC(CC1CC1)C(=O)C(N)=O)C2(C)C)C(C)(C)C` (stereo partly drawn), the inhibitory constant (Ki) is 1 to 100 nM. To `CCC1(NC(=O)N[C@H](C(=O)N2C[C@H]3[C@@H]([C@H]2C(=O)NC(CC2CCC2)C(=O)C(N)=O)C3(C)C)C(C)(C)C)CCCCC1` (stereo partly drawn) belongs 1 to 100 nM; to `CC(C)(CF)NC(=O)N[C@H](C(=O)N1C[C@H]2[C@@H]([C@H]1C(=O)NC(CC1CC1)C(=O)C(N)=O)C2(C)C)C1CCCCC1` (stereo partly drawn), 1 to 100 nM. In the case of `CC(C)(CF)NC(=O)N[C@H](C(=O)N1C[C@H]2[C@@H]([C@H]1C(=O)NC(CC1CCC1)C(=O)C(N)=O)C2(C)C)C(C)(C)C` (stereo partly drawn), the inhibition constant Ki was 1 to 100 nM. As to `CC1C[C@H]2CN(C(=O)[C@@H](NC(=O)OC(C)(C)C)C(C)(C)C)[C@H](C(=O)NC(CC3CCC3)C(=O)C(=O)NCC(=O)N[C@H](C(=O)N(C)C)c3ccccc3)[C@H]2CC1C` (stereo partly drawn), the inhibition constant (Ki) lay within 1 to 100 nM.

As to `CC1C[C@H]2CN(C(=O)[C@@H](NC(=O)OC(C)(C)C)C(C)(C)C)[C@H](C(=O)NC(CC3CCC3)C(=O)C(N)=O)[C@H]2CC1C` (stereo partly drawn), the Ki is 101 to 1000 nM. Turning to `C[C@@H](NC(=O)N[C@H](C(=O)N1C[C@H]2C([C@H]1C(=O)NC(CC1CC1)C(=O)C(N)=O)C2(C)C)C(C)(C)C)C(C)(C)C` (stereo partly drawn), the Ki is 1 to 100 nM. As for `CC1(C)C2[C@@H](C(=O)NC(CC3CCC3)C(=O)C(N)=O)N(C(=O)[C@@H](NC(=O)[C@@H]3CSC(=O)N3)C3CCCCC3)C[C@@H]21` (stereo partly drawn), the figure is 1 to 100 nM; as for `CC1(C)C2[C@@H](C(=O)NC(CC3CCC3)C(=O)C(N)=O)N(C(=O)[C@@H](NC(=O)C3CCC(=O)O3)C3CCCCC3)C[C@@H]21` (stereo partly drawn), 1 to 100 nM; as for `CC(=O)N[C@H](C(=O)N[C@H](C(=O)N1C[C@H]2C([C@H]1C(=O)NC(CC1CCC1)C(=O)C(N)=O)C2(C)C)C1CCCCC1)c1ccccc1` (stereo partly drawn), 1 to 100 nM.

On to `CC1(C)C2[C@@H](C(=O)NC(CC3CCC3)C(=O)C(N)=O)N(C(=O)[C@@H](NC(=O)C3CC(=O)c4ccccc43)C3CCCCC3)C[C@@H]21` (stereo partly drawn), for which the inhibition constant Ki lay in the range of 101 to 1000 nM.

With `CC1(C)C2[C@@H](C(=O)NC(CC3CCC3)C(=O)C(N)=O)N(C(=O)[C@@H](NC(=O)C3OC(=O)c4ccccc43)C3CCCCC3)C[C@@H]21` (stereo partly drawn), the Ki is 1 to 100 nM.

As for `CC1(NC(=O)N[C@H](C(=O)N2C[C@H]3[C@@H]([C@H]2C(=O)NC(CC2CC2)C(=O)C(=O)NCC(=O)NCc2ccccc2)C3(C)C)C(C)(C)C)CCCCC1` (stereo partly drawn), the Ki was 1 to 100 nM.
